# From the supplement of paper PMC3334620
# Whole data set: some 33,000 sequences, median “E-score (-0.5 to 0.5)” near -0.054, cut for the highest 2% near 0.35. The list shows a part of the results.
# Target: T1, Stb5 (UniProt P38699)
# T1 sequence: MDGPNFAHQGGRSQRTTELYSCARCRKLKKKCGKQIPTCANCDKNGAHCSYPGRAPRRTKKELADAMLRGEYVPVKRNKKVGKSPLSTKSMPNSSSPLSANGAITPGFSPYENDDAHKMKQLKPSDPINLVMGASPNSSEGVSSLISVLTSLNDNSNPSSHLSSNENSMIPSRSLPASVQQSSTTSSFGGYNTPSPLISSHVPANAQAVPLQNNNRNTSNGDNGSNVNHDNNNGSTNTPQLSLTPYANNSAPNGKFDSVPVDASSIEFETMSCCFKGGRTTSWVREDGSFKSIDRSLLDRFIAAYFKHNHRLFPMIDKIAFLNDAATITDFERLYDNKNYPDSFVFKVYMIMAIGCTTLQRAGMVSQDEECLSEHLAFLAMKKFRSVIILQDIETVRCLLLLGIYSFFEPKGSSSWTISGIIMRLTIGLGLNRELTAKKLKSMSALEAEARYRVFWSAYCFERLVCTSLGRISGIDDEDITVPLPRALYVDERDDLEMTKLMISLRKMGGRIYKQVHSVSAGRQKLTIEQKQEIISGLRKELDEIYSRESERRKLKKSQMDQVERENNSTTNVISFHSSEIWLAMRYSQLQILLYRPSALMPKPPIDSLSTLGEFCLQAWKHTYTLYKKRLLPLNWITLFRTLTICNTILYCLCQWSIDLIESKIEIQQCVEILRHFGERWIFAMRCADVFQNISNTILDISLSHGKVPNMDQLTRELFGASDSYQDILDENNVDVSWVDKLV
# Test: PBM E-score (8-mer binding enrichment) (E-score (-0.5 to 0.5)); higher = stronger / more preferred TF binding; most listed sequences are background and not binding sites
# Details: protein concentration: 200 nM; construct: GST-full length
# Protocol: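 Universal 'all 10-mer' protein binding microarrays (Agilent AMADID 015681) probed with GST-tagged S. cerevisiae TFs (full-length or DBD) made by in vitro transcription/translation (PURExpress), about 100-200 nM. Bound TF was detected with fluorescent anti-GST. Each ungapped 8-mer (which stands for itself and its reverse complement) is scored by the PBM enrichment score (E-score), a modified Wilcoxon-Mann-Whitney statistic from -0.5 to +0.5, computed with the Universal PBM Analysis Suite. Scale: above 0.35 generally sequence-specific binding.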
row,Sequence,PBM E-score
1,AATATTCT,-0.0217
2,CAGAACTG,-0.218
3,AGCGGTAT,0.351
4,AACGTGAG,-0.116
5,AAGGCAGG,-0.0754
6,GGTTGAGA,0.0761
7,TAAAAAAA,0.00986
8,ACTGTACA,-0.292
9,CACGCCGC,0.293
10,CGCCGACA,0.354
11,AGCGTGTC,-0.145
12,ACTTCTAC,-0.279
13,TATCTGGA,-0.2
14,CGGTGTGC,0.219
15,ACGGCTTG,-0.0845
16,ATTCCTAG,-0.0861
17,ATTCAGGC,-0.0849
18,CCAACCCA,-0.196
19,ACGACCAT,-0.206
20,CCACGGTC,0.143
21,GGCGCTAC,0.285
22,AAAGGCGA,-0.14
23,CGGATCGA,0.145
24,ACACGGTG,0.299
25,GTGCATCA,-0.14

row,Sequence,PBM E-score
1,GGCAGCTA,-0.0896
2,AGAGCGTC,-0.203
3,AGGTCAAT,-0.16
4,AGGCAACA,-0.195
5,GGGCGGTA,0.346
6,AGGCGGAA,0.131
7,TCGCACAA,-0.197
8,ATACATTG,-0.0394
9,ATGTAGGC,0.0664
10,CGAATTAG,-0.0537
11,GCGGACTA,0.332
12,GGGTATAC,0.224
13,CACCTTCG,0.0477
14,TCGCTGAA,-0.205
15,CTACTTCA,-0.161
16,CGCACCAC,0.0134
17,ATAAGTGG,0.0366
18,AACGTGCG,0.00856
19,ACACCAAT,0.0231
20,CCTCCGGC,0.302
21,ACCAGGAT,-0.102
22,TCCTGACA,-0.374
23,CTATATGA,0.0326
24,CCTCTACG,-0.181
25,GCAGATCA,-0.107

row,Sequence,PBM E-score
1,CAAGTGCA,-0.299
2,AATTACAC,0.14
3,ATCGTATA,-0.0233
4,ATTATAGG,0.059
5,AAACCAAC,-0.186
6,ACTGACCA,-0.131
7,ATGGCGGC,0.248
8,AAACCTAT,-0.127
9,TAATCAAA,0.00464
10,GCAATTAC,0.139
11,CAATAAGG,-0.0479
12,ACTAGGGA,-0.154
13,ACTACCAT,-0.125
14,TAGTAATA,-0.146
15,AGATGGGC,-0.0693
16,AAGCTTAT,-0.0352
17,AAGAGACT,-0.192
18,CCATTCGG,0.143
19,AACAACAC,-0.238
20,CTCGGTAA,0.068
21,AGATATCT,-0.274
22,ACCGATAT,0.232
23,CGAAACCA,-0.0365
24,CATCAATA,-0.165
25,AACATTAC,-0.0746

row,Sequence,PBM E-score
1,ACAAACGC,0.15
2,CGAACCCG,0.103
3,CAATAGGA,-0.146
4,ACGCCGAA,0.264
5,ACCACTTA,-0.0547
6,GCAGGAGA,-0.0364
7,CAGGTCGG,0.274
8,CTTATTGA,-0.0347
9,GACCCAGC,-0.205
10,CTATCCGC,0.0573
11,ATACTACG,-0.0545
12,AGCGGGCG,0.261
13,CAGCCATC,-0.207
14,GCGTCTAC,-0.0877
15,ACCCGTAT,0.0512
16,AGATTCTA,-0.0584
17,AATTAAAC,0.0202
18,CACGAATA,-0.203
19,CAAAGTAC,-0.189
20,GCAAGGAA,-0.00519
21,AGGCTTAG,-0.193
22,ATCTTTAG,0.00097
23,CGATGACC,0.0547
24,CGTCCTGC,-0.00146
25,ACAGCGAT,0.15

row,Sequence,PBM E-score
1,AGTCGCGC,0.0306
2,TATACGCA,-0.0348
3,CCACTCGG,0.00217
4,CCGATGAC,0.301
5,ATTCCGCC,0.233
6,CAAACAGA,-0.149
7,CGGCTCCA,0.215
8,ACCAATTC,-0.0154
9,CATGTTGC,-0.0278
10,CCAGTGCG,-0.0766
11,ATCTAGGA,-0.0132
12,AATAAGGT,0.19
13,ATGATAAG,-0.0226
14,ACAAGCGT,-0.197
15,AATATCGA,-0.0931
16,GTTAAGTA,-0.216
17,CGCATCCC,0.0796
18,CTCATATA,0.0112
19,GATCCGGC,0.255
20,AAACTATT,0.013
21,ACGGGCCT,0.376
22,CAGCCGAA,-0.172
23,CACGGGAG,-0.0718
24,CGCCGGTA,0.335
25,CGCGAAAC,0.0812

row,Sequence,PBM E-score
1,AGCGCAGA,-0.0263
2,CGTACGTA,-0.15
3,GCATTCCA,-0.0874
4,AAAACTAA,-0.32
5,ATGGTGAA,0.0462
6,CTGATGCA,-0.267
7,ATGAATCC,0.0336
8,ACGGCGGG,0.286
9,CGGGGCGC,0.251
10,GGAGCAAA,0.123
11,TTCAGAAA,-0.00912
12,CAAGCCTC,-0.176
13,CCAAACCC,0.106
14,AACAGGCC,0.0168
15,ATGTAATG,0.0198
16,TAATTGGA,0.029
17,AAGTGATA,-0.201
18,AAGTTTCG,0.0014
19,ACCTCAAT,-0.271
20,CGAATATA,-0.0142
21,CGATCAGA,-0.0796
22,AGTACTTG,-0.0215
23,CGGGCACA,0.281
24,GCCGATAA,0.313
25,CTCCAGGA,-0.186

row,Sequence,PBM E-score
1,AACATGTT,-0.149
2,CACGGAGA,0.248
3,TAAAATCA,-0.152
4,CGACCGCC,0.255
5,ACGTATAG,0.0119
6,GACTAAAA,0.208
7,AACTTACC,-0.13
8,CTAACAAC,-0.177
9,GTTTCCAA,-0.0451
10,ATGCGCAG,-0.147
11,ATAGGATA,0.0852
12,AGTCCCTA,-0.197
13,GGGTCAAA,0.103
14,GTCTAATA,0.101
15,TCGGGAAA,0.232
16,TATGATAA,0.00992
17,AAACGCAT,-0.0868
18,ATTTGACA,-0.0526
19,CCATCCGA,-0.0433
20,ATAATCAA,0.18
21,AGAGTGCC,-0.229
22,GCAATTTA,0.101
